This note sets out measurements from publication PMC4336329 (PLoS ONE, 2015).

Among all 310,000 compounds or so, about 14,000 (4.5%) showed an effect of 50% or more. Effects have a minus sign here. Some of the results follow.
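Further: peak tail current of the secondary pulse compared with the same well before compound.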

In the experiment the target is human ether-à-go-go-related gene (hERG) potassium channel (human, UniProt Q12809). Put plainly: primary screen, population patch clamp on CHO cells stably expressing hERG.
Sequence of human ether-à-go-go-related gene (hERG) potassium channel (Q12809 whole entry, looked up): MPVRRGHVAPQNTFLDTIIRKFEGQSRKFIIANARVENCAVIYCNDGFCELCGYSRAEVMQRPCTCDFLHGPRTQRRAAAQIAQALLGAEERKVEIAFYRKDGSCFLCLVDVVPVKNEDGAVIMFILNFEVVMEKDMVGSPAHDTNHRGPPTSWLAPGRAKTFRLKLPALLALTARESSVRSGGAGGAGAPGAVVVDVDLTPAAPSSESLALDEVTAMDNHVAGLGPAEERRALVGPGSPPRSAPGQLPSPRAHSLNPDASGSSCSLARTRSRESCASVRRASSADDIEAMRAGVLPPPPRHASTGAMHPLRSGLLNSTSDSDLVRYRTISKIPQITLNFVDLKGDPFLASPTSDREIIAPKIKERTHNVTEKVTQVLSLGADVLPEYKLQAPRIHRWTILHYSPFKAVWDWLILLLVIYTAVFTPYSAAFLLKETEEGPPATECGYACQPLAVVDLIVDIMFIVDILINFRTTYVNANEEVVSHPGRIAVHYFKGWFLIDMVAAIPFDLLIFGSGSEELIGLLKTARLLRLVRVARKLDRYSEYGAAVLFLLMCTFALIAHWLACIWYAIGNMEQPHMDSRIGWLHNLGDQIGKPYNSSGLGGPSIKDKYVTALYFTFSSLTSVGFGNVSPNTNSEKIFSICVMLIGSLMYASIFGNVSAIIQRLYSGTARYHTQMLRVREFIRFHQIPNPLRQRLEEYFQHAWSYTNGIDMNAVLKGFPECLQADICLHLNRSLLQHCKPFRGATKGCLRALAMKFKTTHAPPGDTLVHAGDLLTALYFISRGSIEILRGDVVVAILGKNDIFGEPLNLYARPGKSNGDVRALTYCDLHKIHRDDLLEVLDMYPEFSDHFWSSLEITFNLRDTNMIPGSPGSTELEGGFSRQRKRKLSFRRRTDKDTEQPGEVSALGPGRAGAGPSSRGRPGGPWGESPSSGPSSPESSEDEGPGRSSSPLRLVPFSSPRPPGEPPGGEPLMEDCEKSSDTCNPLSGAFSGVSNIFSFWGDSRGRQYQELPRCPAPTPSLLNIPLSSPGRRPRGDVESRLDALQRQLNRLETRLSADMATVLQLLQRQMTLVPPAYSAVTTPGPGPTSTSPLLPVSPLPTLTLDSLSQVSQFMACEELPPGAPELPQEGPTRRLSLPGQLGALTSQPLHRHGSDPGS
In the case of `COc1ccc(OC)c(NC(=O)CSc2nc(=O)n(CCN3CCOCC3)c3c2CCCC3)c1`, the “hERG current change (%, negative = inhibition) at 10uM” value was -30.8%.

Take `COC(=O)c1ccc(/C=N/NC(=O)C(=O)NCC2CCCO2)cc1` (stereo not drawn): the “hERG current change (%, negative = inhibition) at 10uM” value was 13.4%.

For `Cc1nc(C)c(C(=O)C2=C(O)C(=O)N(CCCn3ccnc3)C2c2ccc(Cl)cc2)s1` (stereo not drawn), the “hERG current change (%, negative = inhibition) at 10uM” value was 3.48%.

With `COCCN1CN(S(=O)(=O)c2ccccc2)c2nc3ccccc3nc21`, the “hERG current change (%, negative = inhibition) at 10uM” value is given as -16.7%.

Turning to `CCN(CC)S(=O)(=O)c1ccc(NC2=NS(=O)(=O)c3ccccc32)cc1`, the “hERG current change (%, negative = inhibition) at 10uM” value is recorded as -19.9%.

Consider `CN1CCN(CC(=O)N2c3ccc(S(=O)(=O)NCCNC(=O)OC(C)(C)C)cc3C(=O)Nc3cccnc32)CC1`, for which the “hERG current change (%, negative = inhibition) at 10uM” value was determined as 4.31%.

Turning to `Cc1cc(C)c(S(=O)(=O)c2ccccc2)c(OC(=O)c2c(Cl)cccc2Cl)n1`, the “hERG current change (%, negative = inhibition) at 10uM” value is on record as -4.78%.

For `COc1cccc(CNC(=O)CSCc2cnn(-c3ccccc3)c2-n2cccc2)c1OC`, the “hERG current change (%, negative = inhibition) at 10uM” value was -36.6%.

`CC1CCC2(CC1)NC(=O)N(CC(=O)NC(=O)Nc1ccc3c(c1)OCCO3)C2=O` (stereo not drawn): the “hERG current change (%, negative = inhibition) at 10uM” value was -4.34%.

Take `N#CCC(=O)N/N=C/c1cc(-c2ccccc2)n(-c2ccc(Cl)cc2)c1-c1ccccc1`: the “hERG current change (%, negative = inhibition) at 10uM” value turned out to be 13%.

Consider `CCc1c(O)nc(SCC(=O)Nc2ccccc2)n(C(C)CC)c1=O` (stereo not drawn), for which the “hERG current change (%, negative = inhibition) at 10uM” value turned out to be 7.15%.

As for `O=C(CCc1nnc2n(Cc3ccccc3)c(=O)c3ccccc3n12)NCCN1CCOCC1`, the “hERG current change (%, negative = inhibition) at 10uM” value was -1.06%.

For the molecule `O=C(COC(=O)COc1ccc(Cl)cc1Cl)Nc1cccnc1Cl`, the “hERG current change (%, negative = inhibition) at 10uM” value is reported as -3.03%.

As to `FC(F)(F)c1ccnc(Sc2n[nH]c(C(F)(F)F)n2)c1`, the “hERG current change (%, negative = inhibition) at 10uM” value was found to be 7.03%.

Take `O=C(CC1C(=O)NCCN1Cc1c(F)cccc1Cl)NCCCOc1cccnc1` (stereo not drawn): the “hERG current change (%, negative = inhibition) at 10uM” value was 16.6%.

Turning to `O=C(CNc1n[nH]c(=O)[nH]c1=O)N/N=C/c1cccnc1`, the “hERG current change (%, negative = inhibition) at 10uM” value was -8.53%.

Consider `Cc1ccc(-c2noc(CNCCCN(C)C)n2)cc1`, for which the “hERG current change (%, negative = inhibition) at 10uM” value is on record as -6.05%.

For `Cc1nc2cc(NC(=O)c3ccc(S(=O)(=O)N(C)c4ccccc4)cc3)ccc2o1`, the “hERG current change (%, negative = inhibition) at 10uM” value came out at 23%.

For the molecule `COc1cccc2c(=O)n(CC(=O)N3CCCc4ccccc43)ccc12`, the “hERG current change (%, negative = inhibition) at 10uM” value was -0.155%.

In the case of `COc1ccc(CNC(=O)c2ccc3c(=O)n(-c4ccccc4)c(=O)[nH]c3c2)cc1`, the “hERG current change (%, negative = inhibition) at 10uM” value is recorded as 12.8%.

In the case of `Cc1cc(=O)[nH]c(SCC(=O)Nc2c(C)n(C)n(-c3ccccc3)c2=O)n1`, the “hERG current change (%, negative = inhibition) at 10uM” value is 3.71%.

As to `Cc1cc(NC(=O)c2cccc(Br)c2)no1`, the “hERG current change (%, negative = inhibition) at 10uM” value amounted to 19.1%.

For `Cc1ccc(NS(=O)(=O)c2ccc3c(c2)NC(=O)CCS3)cc1C`, the “hERG current change (%, negative = inhibition) at 10uM” value is reported as -3.53%.

For the molecule `CCCC1CC(C)(c2csc(Nc3ccc(OCC)cc3)n2)OC1=O` (stereo not drawn), the “hERG current change (%, negative = inhibition) at 10uM” value is 1.6%.

For the molecule `Cc1ccccc1NC(=O)c1cccc2c1C(=O)N(C1CCCCC1)C2`, the “hERG current change (%, negative = inhibition) at 10uM” value came to 1.52%.

For `O=C(CN1C(=O)NC2(CCCCCC2)C1=O)Nc1cccc(F)c1`, the “hERG current change (%, negative = inhibition) at 10uM” value was -13.5%.

Consider `CCc1nc2ccc(C(=O)N3CCN(c4ccccc4F)CC3)cc2nc1CC`, for which the “hERG current change (%, negative = inhibition) at 10uM” value is -19.5%.

For `CC(C)NC(=O)CSc1nc(Cc2ccccc2)nc2ccccc12`, the “hERG current change (%, negative = inhibition) at 10uM” value was -5.74%.

As to `Cc1nn(C)c(C)c1/C=C(/C(=O)C(C)(C)C)n1cncn1`, the “hERG current change (%, negative = inhibition) at 10uM” value is 28.5%.

As to `CCOC(=O)C1=C(O)C(=O)N(c2ccc(S(N)(=O)=O)cc2)C1c1ccc([N+](=O)[O-])cc1` (stereo not drawn), the “hERG current change (%, negative = inhibition) at 10uM” value is -18.7%.

In the case of `O=C(Nc1nc2ccccc2[nH]1)C1CCN(S(=O)(=O)c2cccs2)CC1`, the “hERG current change (%, negative = inhibition) at 10uM” value was -0.923%.

As for `COc1ccc(/C=N\NC(=O)COc2ccc(Cl)cc2Cl)c(C(=O)O)c1OC`, the “hERG current change (%, negative = inhibition) at 10uM” value was -1.28%.

Take `COc1cccc(NC(=O)CN(C)C(=O)c2cc(-c3ccc(F)cc3)nc3ccccc23)c1`: the “hERG current change (%, negative = inhibition) at 10uM” value is -24.3%.

For `O=C(O)c1cccc(NCc2ccncc2)c1`, the “hERG current change (%, negative = inhibition) at 10uM” value is given as 14.6%.

On to `COc1ccc(NC(=O)C(=O)c2cn(CC(=O)N3CCCC3)c3ccccc23)cc1OC`, for which the “hERG current change (%, negative = inhibition) at 10uM” value is reported as 17.1%.

On to `Nc1ccccc1S(=O)(=O)C(F)F`, for which the “hERG current change (%, negative = inhibition) at 10uM” value worked out at 16.7%.

On to `CN(CC(=O)Nc1ccc(Cl)cc1)C(=O)c1ccc(NS(=O)(=O)c2ccc3[nH]c(=O)[nH]c3c2)cc1`, for which the “hERG current change (%, negative = inhibition) at 10uM” value is listed as -0.286%.

With `COC(=O)c1cccc(C23CC4(C2)[C@H](CN(Cc2ccc(C(F)(F)F)cc2)[C@@H]4c2ccccc2)C3c2ccc(C(F)(F)F)cc2)c1` (stereo partly drawn), the “hERG current change (%, negative = inhibition) at 10uM” value was determined as 1.54%.

As for `COc1ccc(N2CC(C(=O)Nc3ccc(F)cc3F)CC2=O)cc1` (stereo not drawn), the “hERG current change (%, negative = inhibition) at 10uM” value was -0.618%.

Turning to `CCN(CC)CCN=Cc1c(O)n(Cc2ccccc2)c(=O)[nH]c1=O` [26665338], the “hERG current change (%, negative = inhibition) at 10uM” value is -31.5%.

As for `CC(=O)c1ccc(N2CCN(C(=O)COc3ccc4c(c3)CCC4)CC2)cc1`, the “hERG current change (%, negative = inhibition) at 10uM” value is recorded as -34%.

Regarding `COc1ccc(OC)c(NC(=O)NCCc2cccc(Cl)c2)c1`, the “hERG current change (%, negative = inhibition) at 10uM” value is 10.1%.

Turning to `CC1CCCCN1CC(=O)c1c[nH]c2ccccc12` (stereo not drawn), the “hERG current change (%, negative = inhibition) at 10uM” value was 0.76%.

For the molecule `Nc1c(NC2CCCCC2)c2ccccc2oc1=O`, the “hERG current change (%, negative = inhibition) at 10uM” value is -4.31%.

With `Cc1cccc(C(C)C)c1NC(=O)CN(C)Cc1cccc(F)c1`, the “hERG current change (%, negative = inhibition) at 10uM” value was 9.25%.

As to `O=C(NCCOc1ccc(F)cc1)C1CCC(=O)N(CCCN2CCOCC2)C1` (stereo not drawn), the “hERG current change (%, negative = inhibition) at 10uM” value came out at 21.2%.

Regarding `COc1ccc(CN2CC(=O)N(c3ccc(C)cc3C)C2=S)cc1OC`, the “hERG current change (%, negative = inhibition) at 10uM” value is on record as -8.05%.

In the case of `N#Cc1ccc(Oc2cccnc2)cc1C#N`, the “hERG current change (%, negative = inhibition) at 10uM” value is recorded as -13.1%.

Regarding `NC(=O)c1c(NC(=O)c2cccnc2)sc2c1CCCCC2`, the “hERG current change (%, negative = inhibition) at 10uM” value is 9.56%.

On to `Cc1cc(NC(=O)c2cccc(S(=O)(=O)N3CCOCC3)c2)c2ccccc2n1`, for which the “hERG current change (%, negative = inhibition) at 10uM” value is -16.2%.

In the case of `CC(C)CCn1c(=O)c2sccc2n2c(CCCC(=O)N3CCN(c4ccccn4)CC3)nnc12`, the “hERG current change (%, negative = inhibition) at 10uM” value was -65%.

In the case of `COC(=O)[C@H](CC(C)C)NC(=O)NC1CCCCC1C` (stereo partly drawn), the “hERG current change (%, negative = inhibition) at 10uM” value was -3.37%.

`Cc1ccccc1C(=O)NNc1ccc(-c2csnn2)cc1`: the “hERG current change (%, negative = inhibition) at 10uM” value is -21.8%.

Turning to `Br.CCCn1c(=N)n(CC(=O)c2ccc([N+](=O)[O-])cc2)c2ccccc21`, the “hERG current change (%, negative = inhibition) at 10uM” value is given as -78.5%.
